Experimental data taken from PubChem BioAssay AID588456 (National Center for Advancing Translational Sciences (NCATS), 2011).
The whole screen tested about 390,000 compounds, of which about 55 (0.01%) were called active. This list was built around the results that the source calls inconclusive (neither active nor inactive); the mix of calls is not that of the screen. The call rests on the fitted dose curve; in most records, active means well fitted inhibition curve with a large enough effect; inconclusive means small, poorly fitted or top-dose-only effect; inactive means no such curve, though single readings can be large or run the other way. Where the call is inconclusive, the potency comes from a doubtful curve fit.

Target: Thioredoxin reductase 1, cytoplasmic (Rattus norvegicus) (UniProt O89049)
Experiment: qHTS Assay for Substrates of Mammalian Selenoprotein Thioredoxin Reductase 1 (TrxR1): qHTS; further: nearly all actives have a fitted effect of over 50% in size
Details: purified TrxR1 substrate turnover, NADPH consumption readout; series mostly up to 114 µM; activity change, negative = substrate turnover: at the top concentration
Procedure, shortened: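 Rat TrxR1, dispensed at 90 nM, was prereduced with 400 uM NADPH (final) for 5 min at ~22 deg C, then incubated with compound 15 min before 400 uM selenite. A first-read NADPH fluorescence drop versus no-compound background flagged substrates.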
On the % scale 0 is the no-effect control and ±100 the full control effect; potency means the concentration at half of the fitted maximal effect; tags describe the fitted curve by direction and shape.

Sequence of UniProt O89049 (O89049 whole entry, looked up): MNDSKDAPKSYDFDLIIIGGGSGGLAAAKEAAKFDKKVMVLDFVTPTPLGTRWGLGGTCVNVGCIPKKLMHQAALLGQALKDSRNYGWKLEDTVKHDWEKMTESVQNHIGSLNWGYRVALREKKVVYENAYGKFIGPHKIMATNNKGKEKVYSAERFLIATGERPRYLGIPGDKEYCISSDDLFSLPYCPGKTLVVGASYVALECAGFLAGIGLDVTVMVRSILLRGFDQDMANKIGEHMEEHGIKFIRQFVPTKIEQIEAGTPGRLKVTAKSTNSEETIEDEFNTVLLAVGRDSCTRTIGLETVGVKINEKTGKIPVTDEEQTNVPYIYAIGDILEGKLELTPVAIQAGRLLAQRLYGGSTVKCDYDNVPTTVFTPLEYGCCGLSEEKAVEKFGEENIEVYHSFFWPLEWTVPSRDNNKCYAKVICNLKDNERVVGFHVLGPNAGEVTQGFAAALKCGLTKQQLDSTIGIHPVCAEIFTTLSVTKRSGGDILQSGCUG

| SMILES | activity change, negative = substrate turnover | Potency |
| --- | --- | --- |
| O=C(N/N=C/c1ccccc1Cl)c1n[nH]c2c1CCCC2 | inactive: 0.629% |  |
| O=C(N/N=C/c1ccncc1)NC12CC3CC(CC(C3)C1)C2 | inactive: -0.515% |  |
| OC(CN1CCN(c2cccc(Cl)c2)CC1)C(c1ccccc1)c1ccccc1 (stereo unspecified) |  | inconclusive: 21.2 µM [inhibitor, partial curve, poor fit] |
| COc1cc2[nH]c(=O)n(CCCCCC(=O)NCCCN3CCOCC3)c(=O)c2cc1OC | inactive: 16.7% |  |
| COCCn1nnnc1C(c1cc2cccc(C)c2[nH]c1=O)N1CCN(c2ccccc2F)CC1 (stereo unspecified) | inactive: -3.76% [at 57.1 µM] |  |
| CCCCn1c(NC(=O)c2ccccc2Cl)c(C#N)c2nc3ccccc3nc21 |  | inconclusive: 79.4 µM [inhibitor, single point] |
| CC(C)c1ccc2c(c1)c(SC(C)(C)C)c(CC(C)(C)C(=O)O)n2Cc1ccc(Cl)cc1 |  | inconclusive: 37.7 µM [inhibitor, single point] |
| C[C@]1(O)CC(=O)C=C[C@H]1Nc1ccccc1 | inactive: 1.8% |  |
| CN1c2ccccc2C(O)=C(C(=S)Nc2ccc(F)c(Cl)c2)S1(=O)=O |  | inconclusive: 56.2 µM [inhibitor, partial curve, poor fit] |
| CC(C)S(=O)(=O)C1=NSC2=NC(=O)/C(=C\c3ccc(-c4cccc(C(=O)O)c4)o3)C(=N)N21 |  | inconclusive: 28.2 µM [inhibitor, partial curve, poor fit] |
| CC1(C)Cc2ccccc2-c2nc3n(c(=O)c21)CCCS3 |  | inconclusive: 89.1 µM [inhibitor, single point] |
| Cc1nc2ccccc2c2ncccc12 |  | inconclusive: 39.8 µM [inhibitor, single point] |
| O=S(=O)(NCC(c1ccco1)N1CCCCC1)c1ccccc1C(F)(F)F (stereo unspecified) |  | inconclusive: 89.1 µM [inhibitor, partial curve, poor fit] |
| CC(C)(C)OC(=O)N1CCC(c2c(C(=O)NCCN3CCCC3)cnn2-c2ccc(Cl)cc2)CC1 |  | inconclusive: 89.1 µM [inhibitor, single point] |
| COc1ccc(-c2cc(C(F)(F)F)n3nc(C(=O)O)c(Cl)c3n2)cc1OC |  | inconclusive: 79.4 µM [inhibitor, single point] |
| COc1cc(C(=O)Nc2nc(C)c(Cc3ccc4c(c3)OCO4)s2)cc(OC)c1OC | inactive: 6.29% |  |
| O=C1NN(c2ccccc2)C(=O)/C1=C/c1ccc(-c2cccc(C(=O)O)c2)o1 |  | inconclusive: 89.1 µM [inhibitor, partial curve, poor fit] |
| CN(C)c1ccc(/C=N/NC(=O)C(=O)N2CCCCCC2)cc1 |  | inconclusive: 89.1 µM [inhibitor, single point] |
| O=C(c1ccc(F)cc1)N(Cc1ccco1)C1CCS(=O)(=O)C1 (stereo unspecified) |  | inconclusive: 89.1 µM [inhibitor, partial curve, poor fit] |
| O=c1c(Cl)c(NCCCO)cnn1-c1nc2ccccc2[nH]1 | inactive: -2.14% |  |
| N#C/C(=C\c1ccc(O)c(O)c1)C(=O)c1ccc(O)c(O)c1 |  | inconclusive: 15 µM [inhibitor, partial curve, poor fit] |
| CCOC(=O)C1CCC(=O)C1 (stereo unspecified) |  | inconclusive: 89.1 µM [inhibitor, partial curve, poor fit] |

| SMILES | activity change, negative = substrate turnover | Potency |
| --- | --- | --- |
| Cc1ccc(-n2nc(C(=O)N3CCN(c4ccccc4F)CC3)c3c4ccccc4n(C)c3c2=O)cc1 |  | inconclusive: 0.891 µM [inhibitor, full curve, poor fit] |
| O=C1CCCCCN1Sc1ccccc1 | inactive: -16.7% [at 57.1 µM] |  |
| C(=NN1CCCCCC1)c1ccc2ccccc2n1 | inactive: -7.5% [at 57.1 µM] |  |
| COc1ccc(-c2nc(CSCC(=O)NCCc3ccccc3)c(C)o2)cc1 | inactive: 6.86% |  |
| COc1ccc(/C=N/NC(=O)c2ccccc2O)cc1COc1ccccn1 |  | inconclusive: 89.1 µM [inhibitor, partial curve, poor fit] |
| COc1cc2ccc(=O)oc2c(O[C@@H]2O[C@H](CO)[C@@H](O)[C@H](O)[C@H]2O)c1O |  | inactive |
| CC[n+]1ccccc1/C=C/c1ccc(N(C)C)cc1 |  | inconclusive: 50.1 µM [inhibitor, partial curve, poor fit] |
| O=C(C1=C[C@@H](c2ccccc2)C[C@@H](OCc2ccc(CO)cc2)O1)N1CCN(Cc2ccc3c(c2)OCO3)CC1 |  | inconclusive: 79.4 µM [inhibitor, partial curve, poor fit] |
| O=C(CCc1nnc(COc2ccccc2)o1)NCc1ccc(Cl)s1 |  | inconclusive: 89.1 µM [inhibitor, single point] |
| CCOC(=O)/C(=C/C=C1\Sc2ccccc2N1CC)C(C)=O |  | inconclusive: 56.2 µM [inhibitor, partial curve, poor fit] |
| CCOC(=O)C1CC(=O)c2ccccc2C1c1ccccc1 (stereo unspecified) |  | inconclusive: 89.1 µM [inhibitor, single point] |
| Cc1cccc(C)c1OCc1cc(C(=O)N2CC3C[C@@H]4CC2C[C@H](C3)C4)no1 | inactive: -3.32% |  |
| CC(=O)N1c2ccc(S(=O)(=O)N(C)CC(=O)Nc3ccccc3C)cc2CC1C (stereo unspecified) |  | inconclusive: 89.1 µM [inhibitor, single point] |
| CN1C/C(=C\c2ccc(N3CCOCC3)cc2)C(=O)/C(=C/c2ccc(N3CCOCC3)cc2)C1 |  | inconclusive: 89.1 µM [inhibitor, partial curve, poor fit] |
| CCS(=O)(=O)c1ncc(Cl)c(C(=O)N2CCN(c3cccc(Cl)c3)CC2)n1 | inactive: -1.01% |  |
| O=C(CC(O)(CC(=O)OCc1ccccc1)C(=O)OCc1ccccc1)OCc1ccccc1 | inactive: -0.39% |  |
| COc1ccc(CNc2c(C(=O)O)cnc3c2cnn3C)cc1 |  | inconclusive: 89.1 µM [inhibitor, partial curve, poor fit] |
| Oc1ccc(N=Nc2ccccc2-c2nn[nH]n2)c(O)c1 |  | inconclusive: 39.8 µM [inhibitor, partial curve, poor fit] |
| O=C(c1cc2ccccc2o1)N1CCN(C/C=C/c2ccccc2)CC1 |  | inconclusive: 31.6 µM [inhibitor, single point] |
| COc1cc2cnc(-c3ccccc3)c(-c3cccc(C(F)(F)F)c3)c2cc1OC |  | inconclusive: 1.58 µM [inhibitor, partial curve, poor fit] |
| CNC(=S)/N=C(/Nc1ccccc1)c1ccccc1 |  | inconclusive: 89.1 µM [inhibitor, partial curve, poor fit] |
| Cc1nnc(N/N=C\c2ccc(-c3ccccc3[N+](=O)[O-])o2)n1N |  | inconclusive: 50.1 µM [inhibitor, partial curve, poor fit] |

| SMILES | activity change, negative = substrate turnover | Potency |
| --- | --- | --- |
| CC1=C(C)CC(C(=O)N2CCN(C/C=C/c3ccccc3)CC2)C(C(=O)O)C1 (stereo unspecified) |  | inconclusive: 89.1 µM [inhibitor, single point] |
| Cc1ccccc1OCC(=O)NCC(=O)OCC(=O)c1ccc(-c2ccccc2)cc1 | inactive: -6.13% |  |
| NS(=O)(=O)c1ccc(NC(=O)c2c(F)cccc2Cl)cc1 |  | inconclusive: 39.8 µM [inhibitor, partial curve, poor fit] |
| Cc1ccc(C(=O)N/C(=C\c2ccc(-c3ccccc3[N+](=O)[O-])o2)C(=O)NCCN(C)C)cc1 | inactive: 1.41% |  |
| COc1ccccc1CN1CC(C(=O)NCCc2ncccc2C)CCC1=O (stereo unspecified) | inactive: 2.65% |  |
| CCN(CC)CCOc1cccc(C(C)C)c1 | inactive: 2.85% |  |
| N#Cc1cc2cc3c(cc2nc1SCC(=O)N1CCCC1)OCCO3 |  | inconclusive: 89.1 µM [inhibitor, single point] |
| CC1(C)CC(=O)c2cc(C(=O)NCCc3ccccc3)c(=O)[nH]c2C1 | inactive: 13.5% |  |
| Cc1cc([N+](=O)[O-])ccc1NC(=O)c1ccco1 | inactive: 3.26% [at 57.1 µM] |  |
| COc1ccc(N2CC(C(=O)N[C@@H](C)C(=O)NC3CCCC3)CC2=O)cc1 (stereo partly specified) |  | inconclusive: 89.1 µM [inhibitor, partial curve, poor fit] |
| COc1ccc(NC(=O)CNC(=O)c2cccs2)cc1Cl |  | inconclusive: 89.1 µM [inhibitor, single point] |
| COC(=O)c1sccc1NC(=O)Nc1cc(C)ccc1C | inactive: 3.5% |  |
| Cc1ccc(/C=N/Nc2nc(N3CCOCC3)nc(N3CCOCC3)n2)o1 |  | inconclusive: 89.1 µM [inhibitor, single point] |
| Cn1c(=O)c2[nH]c(SCC(=O)c3ccc(F)cc3)nc2n(C)c1=O |  | inconclusive: 89.1 µM [inhibitor, partial curve, poor fit] |
| O=C1NCN(c2ccccc2)C12CCN(CCCC(c1ccc(F)cc1)c1ccc(F)cc1)CC2 |  | inconclusive: 9.47 µM [inhibitor, partial curve, poor fit] |
| N#C/C(=C\c1ccc(O)c([N+](=O)[O-])c1)C(=O)NCc1ccccc1 |  | inconclusive: 70.8 µM [inhibitor, partial curve, poor fit] |
| COc1ccc(C2NC(=O)C(=O)/C2=C(\O)c2ccc(Cl)cc2)cc1OC (stereo unspecified) |  | inconclusive: 56.2 µM [inhibitor, partial curve, poor fit] |
| COc1ccc(CCNCc2ccc(-c3ccccc3)cc2)cc1OC |  | inconclusive: 89.1 µM [inhibitor, single point] |
| CCOc1ccc(NC(=O)[C@H](C)NC(=O)C2CC(=O)N(c3ccc(OC)cc3)C2)cc1 (stereo partly specified) |  | inconclusive: 100 µM [inhibitor, partial curve, poor fit] |
| Cc1ccsc1C=Nc1ccc(O)cc1 |  | inconclusive: 89.1 µM [inhibitor, single point] |
| c1ccc2c(c1)oc1c(NCCCN3CCOCC3)ncnc12 |  | inconclusive: 39.8 µM [inhibitor, single point] |
| Cc1ccc(C)c(NC(=O)CN(C)C(=O)c2ccc(S(=O)(=O)N(C)c3ccccc3)cc2)c1 |  | inconclusive: 89.1 µM [inhibitor, partial curve, poor fit] |
